PubChem BioAssay AID759 (NMMLSC, 2007)
Out of some 190,000 compounds screened, about 270 (0.14%) were called active. This list was built around the results that the source calls inconclusive (neither active nor inactive); the mix of calls is not that of the screen.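 Rule for the calls: active = GTP binding activity at least 20% away from the 100% baseline, either lowered as inhibitor or raised as activator; inconclusive = flagged as likely green fluorescent, judged across all proteins in the well; inactive = the rest.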 Non-standard residues stand in square brackets, D forms with d. Residues, ends and D or L forms follow the SMILES beside them. ξ: configuration not given here. *: point of attachment. Boc = CC(C)(C)OC(=O)*; NHBn = c1ccc(CN*)cc1; ξV = CC(C)C(N)C(=O)O

biological target: GTPase HRas (Homo sapiens) (UniProt P01112); assay: HRas wt fluorescent GTP binding changes, either direction – biochemical, wildtype, bead-based flow cytometry, multiplex, primary screen (AID 759); conditions: GST-Ras wt beads, Bodipy-FL-GTP binding, at 10 µM, actives lie on both sides;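 note: 0% = unlabeled GTP competition control and 100% = no-compound control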
UniProt P01112, sequence (P01112 whole entry, looked up): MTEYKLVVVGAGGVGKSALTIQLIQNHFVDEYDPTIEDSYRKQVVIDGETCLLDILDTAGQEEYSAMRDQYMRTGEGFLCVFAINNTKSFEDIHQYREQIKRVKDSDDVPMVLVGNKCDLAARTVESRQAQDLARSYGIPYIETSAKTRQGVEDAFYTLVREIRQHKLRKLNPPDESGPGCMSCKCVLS

Compound	GTP binding activity
COc1ccc(CN(C)C(=O)COC(=O)c2c(-c3ccccc3Cl)noc2C)cc1	inactive: 92%
O=C(O)c1cccc(Nc2cc(Cl)c3nonc3c2[N+](=O)[O-])c1	inconclusive: 87%
O=C1ON=C(c2cccc([N+](=O)[O-])c2)/C1=C/c1ccc(O)cc1	inconclusive: 93%
CCOP(=O)(OCC)C(Nc1ccccn1)c1ccccc1 (centres undefined)	inconclusive: 100%
CCc1cc(=O)[nH]c(SCCC(F)=C(F)F)n1	inactive: 97%
O=C(Nc1ccc2nc3ccccc3nc2c1)c1ccccc1	inconclusive: 89%
O=C(CNC(=S)N(CCCN1CCOCC1)Cc1cccs1)NCCN1CCOCC1	inconclusive: 101%
O=C(O)CCC(=O)c1c[nH]c2ccccc12	inconclusive: 111%
CCCOc1ccc(Cc2c(Cl)nc(SC)nc2NC)cc1	inconclusive: 91%
Cc1noc(C)c1COc1cccc(C(=O)OCCOc2ccc(F)cc2)c1	inconclusive: 96%
CC1=C(C(=O)N2CCOCC2)C(c2ccccc2F)C2=C(CC(C)(C)CC2=O)N1 (centres undefined)	inconclusive: 111%
C=CCn1c(SCC(=O)NC2CCCCC2)nnc1C1CCCCC1	inconclusive: 102%
CC(C)CN(CC(C)C)C(=S)Nc1ccc(Cl)cc1	inactive: 93%
O=C(O)CCC(=O)c1cccc2ccccc12	inconclusive: 106%
COc1ccc(C)cc1NC(=O)c1ccoc1C	inconclusive: 104%
Cc1ccc(/C=C/C(=O)NCc2cccs2)c(C)c1	inconclusive: 93%
O=C(O)/C=C/C(=O)Nc1cccnc1	active: 38%
Clc1ccc(-c2nnc3n2CCCS3)cc1	inconclusive: 96%
CNc1ncc(C(=O)c2ccc(Br)cc2)s1	inactive: 101%
O=C(Cn1cnc2cc([N+](=O)[O-])ccc2c1=O)NCc1ccccc1	inconclusive: 90%

Compound	GTP binding activity
CC(C)(C)c1nc2scc(-c3ccc(Br)cc3)c2c(=O)o1	inconclusive: 92%
COc1cc(-c2nnc(CSc3nnc(Nc4ccc(Oc5ccccc5)cc4)s3)o2)cc(OC)c1OC	inactive: 93%
CC(C)C(NC(=O)CNC(=O)OC(C)(C)C)C(=O)NCc1ccccc1 (stereo not drawn) (Boc-Gly-[ξV]-NHBn)	inconclusive: 100%
O=C(O)CC(C(=O)OC1CCCCC1)N1CCOCC1 (centres undefined)	inconclusive: 96%
OC(CNCCc1ccc(C(F)(F)F)cc1)COc1ccc2ccccc2c1 (centres undefined)	inconclusive: 89%
O=c1c2[nH]c3ccccc3c2ncn1Cc1cccnc1	inconclusive: 105%
Cc1c(CCC(=O)O)c(=O)oc2cc(O)ccc12	inactive: 101%
Cc1ccc(C(=O)C(OC(=O)c2cnccn2)c2ccccc2)cc1C (centres undefined)	inconclusive: 102%
Cc1nnc(SCc2cccc(CSc3nnc(C)s3)c2)s1	inconclusive: 102%
O=S(=O)(c1cccc(C(F)(F)F)c1)N1CCC(c2cc(-c3cccc4ccccc34)n[nH]2)CC1	inconclusive: 100%
O=C(COn1nnc2ccc(Cl)cc21)NCc1ccccc1	inconclusive: 46%
O=C(O)c1c2c(nc3ccc(S(=O)(=O)N4CCC(C(=O)NC5CCCC5)CC4)cc13)CCCCC2	inconclusive: 96%
CC1(C)CC2(CC(c3ccccc3F)c3ccc(O)c(O)c3O2)NC(=S)N1 (centres undefined)	inactive: 98%
CC(C)(C)NC(=O)CN(C(=O)Cn1nnc(-c2ccc(Cl)cc2)n1)C1CCN(Cc2ccccc2)CC1	inactive: 99%
Cc1nnc(N2CCOCC2)c2nn(-c3cccc(Cl)c3)c(C)c12	inconclusive: 180%
CC(C)OCCCNC(=O)CNC(=O)c1ccc(Cl)c(Cl)c1	inactive: 98%
O=C1/C(=C/c2ccc(N3CCOCC3)o2)SC(=Nc2ccccc2)N1CCc1c[nH]c2ccccc12	inconclusive: 149%
CCCCCCCC(=O)N/N=C(\C)c1ccc(O)cc1O	inconclusive: 98%
CCCCNC(=O)/C(=C/c1ccccc1)NC(C)=O	inconclusive: 102%
COC(=O)c1ccc(CSc2ccc3nnc(-c4ccccn4)n3n2)o1	inconclusive: 90%

Compound	GTP binding activity
COc1ccc(-n2nc3ccc(NS(C)(=O)=O)cc3n2)cc1Cl	inconclusive: 94%
CC(=O)OCC1=C(C(=O)O)N2C(=O)C(NC(=O)c3ccc(COc4cccc(Cl)c4Cl)o3)C2SC1 (centres undefined)	inconclusive: 90%
Cn1c(NCc2c[nH]c3ccccc23)nc2ccccc21	inconclusive: 93%
N/C(=N\OC(=O)Oc1ccccc1)c1cccc([N+](=O)[O-])c1	inactive: 99%
COc1ccc(N2CC(C(=O)N/N=C/c3cc([N+](=O)[O-])ccc3O)CC2=O)cc1 (centres undefined)	inconclusive: 90%
O=C(c1cc(-c2ccncc2)nc2ccc(Br)cc12)N1CCN(c2ccccn2)CC1	inconclusive: 94%
O=C(C[n+]1cccc2ccccc21)c1ccc(NC(=O)c2ccccc2)cc1	inconclusive: 139%
Cc1nn(-c2ccc(F)cc2)c(Cl)c1/C=C/C(=O)N1CCNC(=O)C1	inactive: 102%
NC(=O)Cn1nc([N+](=O)[O-])nc1Oc1ccccc1C(=O)N1CCOCC1	inconclusive: 94%
CCCCOC(=O)NC1CCS(=O)(=O)C1 (centres undefined)	inconclusive: 104%
Cc1cc(C)n2nc(SCC(=O)N/N=C/c3cccc(Br)c3)nc2n1	inconclusive: 91%
CC(C)(C)NC(=O)CN(C(=O)C(=O)Nc1ccc2c(c1)OCCO2)C(C)(C)C	inactive: 97%
O=C(Nn1c(O)c(C=C2N=c3ccccc3=N2)sc1=S)c1ccccc1	inconclusive: 96%
COc1ccc(-c2c[n+]3c4n2CCCCC4=C(c2ccccc2)C3)cc1	inconclusive: 107%
COc1ccc(CNc2ccccc2SC)cc1OC	inconclusive: 102%
COc1ccccc1NC(=O)Nc1cccnc1	inactive: 94%
Cc1ccc(S(=O)(=O)O/N=C2/CCCc3occc32)cc1	inconclusive: 106%
O=C(c1ccco1)N1CCN(c2cc(N3CCOCC3)c(F)cc2[N+](=O)[O-])CC1	inconclusive: 92%
CNC(=S)NNC(=O)c1noc(C)c1C(=O)N1CCN(C(c2ccccc2)c2ccccc2)CC1	inactive: 94%
